Measured values from PubChem BioAssay AID485290 (National Center for Advancing Translational Sciences (NCATS), 2010).
Among all 350,000 compounds or so, about 990 (0.28%) were called active. Inconclusive results, whose numbers are uncertain, are shown with a selection of clear calls. The call rests on the fitted dose curve; in most records, active means well fitted inhibition curve with a large enough effect; inconclusive means small, poorly fitted or top-dose-only effect; inactive means no such curve, though single readings can be large or run the other way. Potencies beside an inconclusive call are fits to weak or partial responses and may not hold up.
On the % scale 0 is the no-effect control and ±100 the full control effect; potency means the concentration at half of the fitted maximal effect; tags describe the fitted curve by direction and shape.

What follows are compounds tested against Tyrosyl-DNA phosphodiesterase 1 (Homo sapiens) (UniProt Q9NUW8) (assay: qHTS Assay for Inhibitors of Tyrosyl-DNA Phosphodiesterase (TDP1)). Conditions: recombinant TDP1, AlphaScreen DNA substrate cleavage; activity change, negative = inhibition: at 130 µM (top of the series) unless noted.
Sequence of UniProt Q9NUW8 (Q9NUW8 whole entry, looked up): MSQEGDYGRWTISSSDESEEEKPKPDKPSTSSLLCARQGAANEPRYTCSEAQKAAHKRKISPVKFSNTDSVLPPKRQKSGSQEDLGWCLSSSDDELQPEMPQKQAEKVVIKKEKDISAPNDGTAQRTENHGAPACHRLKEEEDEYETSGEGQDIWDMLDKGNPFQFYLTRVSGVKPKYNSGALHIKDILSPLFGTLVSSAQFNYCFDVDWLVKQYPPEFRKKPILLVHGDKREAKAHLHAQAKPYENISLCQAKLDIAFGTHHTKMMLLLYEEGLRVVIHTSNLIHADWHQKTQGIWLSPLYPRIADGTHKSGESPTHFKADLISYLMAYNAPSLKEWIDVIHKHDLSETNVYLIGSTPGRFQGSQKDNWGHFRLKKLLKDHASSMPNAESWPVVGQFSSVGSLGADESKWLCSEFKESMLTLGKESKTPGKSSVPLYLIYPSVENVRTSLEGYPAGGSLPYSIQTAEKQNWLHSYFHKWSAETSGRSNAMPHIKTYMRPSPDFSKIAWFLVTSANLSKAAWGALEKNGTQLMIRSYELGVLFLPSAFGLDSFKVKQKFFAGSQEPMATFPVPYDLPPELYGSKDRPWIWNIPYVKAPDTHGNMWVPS
From the text: NIH Molecular Libraries Probe Production Network [MLPCN]
NIH Chemical Genomics Center [NCGC]
Assay Provider: Yves Pommier and Christophe Marchand, National Cancer Institute
Assay Title: qHTS Assay for Inhibitors of Tyrosyl-DNA Phosphodiesterase (TDP1); further: nearly all actives have a fitted effect of over 40% in size
Human tyrosyl-DNA phosphodiesterase I (Tdp1) is a rational anticancer target because this enzyme is involved in the repair of DNA lesions created by the trapping of human DNA topoisomerase I (Top1) following treatment by anticancer agents such as camptothecins. Recombinant Tdp1 was expressed and purified from E. coli in the laboratory (Anthony et al, Nucleic Acids Research, 2007, Vol. 35, 4474-4484). A Tdp1 DNA substrate bearing a 5' biotin and a 3' phospho-tyrosine was obtained by custom synthesis. This oligonucleotidic DNA substrate was subsequently coupled to a fluorescein isothiocyanate (FITC) group via the free amino group present on the phospho-tyrosine. Tdp1 was screened against the NCGC small molecule library using the AlphaScreen (AS) detection method in which a streptavidin donor AS bead is bound at the 5' end and an anti-FITC AS acceptor bead is bound at the 3' end of the DNA oligonucleotidic substrate. In the presence of Tdp1, the enzyme cleaves the tyrosine-FITC group, leaving a 3' end phosphate on the DNA substrate. This cleavage reaction results in a loss of signal in AS.
[1] 3 ul of buffer is dispensed in columns 3 & 4 as negative control (no enzyme and maximum signal),
[2] 3 ul of enzyme (1 nM final) is dispensed in columns 1,2, 5-48,
[3] 1 ul of substrate (15 nM final) is dispensed throughout the plate,
[4] 1 ul of AS donor/acceptor bead mix (10 ug/ml final) is dispensed throughout the plate
3 ul of Tdp1 enzyme is dispensed to 1536-well Kalypsys black solid bottom plates. Compounds and controls (23 nl) are transferred via Kalypsys Pin Tool. The plates are incubated for 15 min at room temperature, and then 1 ul of substrate is added to start the reaction. After 5 min incubation at room temperature, 1 ul of AS donor/acceptor bead mix is added and the plates are further incubated for 10 min at room temperature. The detection is then performed on a PerkinElmer Envision reader.
With `CCOc1ccc(NS(=O)(=O)c2ccc3[nH]cc(C(=O)NCc4ccco4)c(=O)c3c2)cc1` the Potency was inconclusive: 50.1 µM [inhibitor, single point]. In the case of `O=C(c1ccco1)N(c1ccccn1)c1ccccn1`, the “activity change, negative = inhibition” value was inactive: 4.66%. In the case of `C=C(C)C(=O)Nc1cccc(C2=NOC3(C2)C[C@H](C(N)=O)N(C(=O)c2ccccc2)C3)c1` (stereo not given in full), the Potency was inconclusive: 79.4 µM [inhibitor, single point]. In the case of `Cc1ccc(/C(N)=N/OC(=O)CCCc2ccccc2)cc1`, the Potency was active: 50.1 µM. For `Cc1ccccc1Cn1ccc(NC(=O)c2cc3ncc(Br)cn3n2)n1`, the Potency was inconclusive: 28.2 µM [inhibitor, full curve]. For `O=C(O)c1cccc(-n2cccc2/C=C2\SC(=O)N(Cc3ccccc3F)C2=O)c1`, the Potency was active: 8.91 µM. For `COc1ccccc1Nc1nc2ccc(C)cc2cc1C#N`, the Potency was inconclusive: 3.16 µM [inhibitor, full curve]. With `COC(=O)c1cc(C(=O)OCC(=O)N2c3ccccc3NC(=O)C2(C)C)cc([N+](=O)[O-])c1` the “activity change, negative = inhibition” value was inactive: 3.43%. With `O=C(/C=C/c1ccc(Cl)c(Cl)c1)N1CCOCC1` the Potency was inconclusive: 31.6 µM [inhibitor, single point]. In the case of `CSc1ccc(/C=C(\C(=O)O)c2ccc(S(=O)(=O)N3CCCC3)s2)cc1`, the Potency was active: 28.2 µM. In the case of `CNC(=S)N1CCN(c2nc3ccccc3s2)CC1`, the Potency was inconclusive: 39.8 µM [inhibitor, single point]. In the case of `Cn1cncc1C#Cc1ccc2cc(C3(O)CCCCC3)oc(=O)c2c1`, the Potency was active: 56.2 µM. With `CCc1ccc(NC(=O)CSc2nc(-c3ccc(C)cc3)nc3c2Cc2c(CO)cnc(C)c2O3)cc1` the Potency was inconclusive: 70.8 µM [inhibitor, single point]. For `O=C(OCCc1cc2ccccc2c(=O)o1)c1ccccc1C(F)(F)F`, the Potency was inconclusive: 20 µM [inhibitor, single point]. With `COc1ccc(NC(=O)/C(C#N)=C\c2ccc(OCc3ccc(C(=O)O)cc3)c(OC)c2)cc1` the Potency was inconclusive: 79.4 µM [inhibitor, partial curve]. For `C=CCc1ccccc1OCCSc1nc(-c2ccccc2F)nc2cc(=O)[nH]n12`, the Potency was inconclusive: 70.8 µM [inhibitor, single point]. In the case of `O=C(O)c1ccc(Cl)c(NC(=S)NC(=O)c2cccc(COc3ccccc3)c2)c1`, the Potency was inconclusive: 44.7 µM [inhibitor, partial curve]. For `O=C(CCN1C(=O)/C(=C\C=C\c2ccccc2)SC1=S)Nc1cccc(C(=O)O)c1`, the Potency was inconclusive: 39.8 µM [inhibitor, single point]. With `O=C(CSc1nc2ccccc2c(=O)n1-c1ccccc1)NC(=O)CN1CCCC1=O` the Potency was active: 22.4 µM. With `CC(C)Oc1ccc(C(=O)Nc2nonc2-c2ccc(OC(C)C)cc2)cc1` the “activity change, negative = inhibition” value was inactive: 6.98%. In the case of `C=CCc1cc(/C=C/c2nc(O)c([N+](=O)[O-])c(=O)[nH]2)cc(OC)c1O`, the Potency was inconclusive: 44.7 µM [inhibitor, partial curve]. In the case of `C[C@H](CO)N1C[C@H](C)[C@@H](CN(C)S(=O)(=O)c2cn(C)cn2)Oc2ccc(NC(=O)Cn3cnnn3)cc2C1=O`, the “activity change, negative = inhibition” value was inactive: 0.672%. `CNS(=O)(=O)c1cccc(C(=O)NCC2(N3CCCCC3)CCCCC2)c1` was tested, and the Potency was active: 50.1 µM. In the case of `CNC(=O)C1CCC(Cn2c(=O)c3sccc3n(CC(=O)NCc3ccccc3)c2=O)CC1` (stereo not given), the “activity change, negative = inhibition” value was inactive: 4.54%. For `CCN(CC)CCn1c2c(c(SCC(=O)Nc3ccccc3Cl)nc1=O)CCCC2`, the Potency was inconclusive: 3.55 µM [inhibitor, single point]. In the case of `O=C(COC(=O)CNS(=O)(=O)c1ccccc1)Nc1ncc(Cl)cc1Cl`, the “activity change, negative = inhibition” value was inactive: -6.89%. For `O=C(NC1CC1)c1ccc2nc(-c3ccco3)c(-c3ccco3)nc2c1`, the Potency was inconclusive: 31.6 µM [inhibitor, partial curve]. `O=C(/C=C/c1cccc(Cl)c1)Nc1ncccn1` was tested, and the “activity change, negative = inhibition” value was inactive: -0.592%. In the case of `Clc1ccc(C2=NN(c3ccccc3)C(c3ccco3)C2)cc1` (stereo not given), the Potency was inconclusive: 12.6 µM [inhibitor, partial curve]. With `Cc1ccc(Cc2nc(-c3cccc(C)c3)no2)cc1` the Potency was inconclusive: 15.8 µM [inhibitor, full curve, poor fit]. With `COc1ccccc1-c1cncnc1Nc1ccc(F)cc1` the Potency was inconclusive: 39.8 µM [inhibitor, single point]. `CCOc1ccc(NC(=O)CSc2cn(CCNC(=O)c3ccccc3F)c3ccccc23)cc1` was tested, and the “activity change, negative = inhibition” value was inactive: 5.81%. For `O=C(Nc1cc(C(=O)Nc2ccc(S(=O)(=O)O)cc2)cc(C(=O)Nc2ccc(S(=O)(=O)O)cc2)c1)Nc1cc(C(=O)Nc2ccc(S(=O)(=O)O)cc2)cc(C(=O)Nc2ccc(S(=O)(=O)O)cc2)c1`, the Potency was inconclusive: 22.4 µM [inhibitor, single point]. With `CCOC(=O)c1c(-c2ccco2)csc1NC(=O)COC(=O)c1cnccn1` the Potency was inconclusive: 56.2 µM [inhibitor, partial curve]. In the case of `CCOC(=O)CSc1nc2cc3c(cc2cc1C)OCO3`, the Potency was inconclusive: 56.2 µM [inhibitor, partial curve]. For `COC(=O)c1ccccc1NC(=O)Cn1c(=O)n(CCC(=O)NCc2ccc3c(c2)OCO3)c(=O)c2ccccc21`, the “activity change, negative = inhibition” value was inactive: 4.54%. For `COc1ccc(C(=O)c2cn(CC(=O)Nc3cc(OC)cc(OC)c3)c3ccc(OC)cc3c2=O)cc1`, the Potency was inconclusive: 15.8 µM [inhibitor, partial curve]. With `Cc1ccc(C(=O)COC(=O)c2cc(Cl)nc3ccccc23)cc1C` the “activity change, negative = inhibition” value was inactive: 2.93%. With `COC(CNC(=O)C1CCN(S(=O)(=O)c2cccc3nsnc23)CC1)OC` the “activity change, negative = inhibition” value was inactive: -0.327%. With `CC(C)n1c2ccccc2c2nc3ccccc3nc21` the Potency was inconclusive: 39.8 µM [inhibitor, single point]. `Cc1ccc(-c2onc(C)c2C)cc1S(=O)(=O)Nc1cccc(Cl)c1C` was tested, and the “activity change, negative = inhibition” value was inactive: 2.63%. With `CC(=O)c1cccc(OCC(=O)N(C)CC(=O)NCc2ccco2)c1` the Potency was active: 7.08 µM. For `Nc1c(C(=O)O)sc2nc(-c3ccccc3)cc(-c3ccc(Cl)cc3)c12`, the Potency was active: 70.8 µM. `CCOc1[nH]c(/N=C/c2ccco2)c(C#N)c1C#N` was tested, and the “activity change, negative = inhibition” value was inactive: 1.07%. For `Cc1ccc(S(=O)(=O)Cc2ccc(C(=O)N3CCc4ccccc4C3)o2)cc1`, the Potency was inconclusive: 22.4 µM [inhibitor, single point]. In the case of `CCCCCCCCCCCCCCOc1ccc(C(=O)O)o1`, the Potency was active: 39.8 µM. With `COc1ccc(O)c(/C=N/NC(=O)c2ccc(CSc3nc(C)cc(C)n3)cc2)c1` the Potency was inconclusive: 56.2 µM [inhibitor, partial curve, poor fit]. With `CCc1ccc2nc3nc(C)cc(C)c3c(N)c2c1` the “activity change, negative = inhibition” value was inactive: -2.93%. In the case of `CCCCC1=CC2=C(OC(C)=O)C(=O)C(C)(OC(=O)C3CCCC3)C(=O)C2=CO1` (stereo not given), the “activity change, negative = inhibition” value was inactive: -9.97%. In the case of `O=C(CCS(=O)(=O)c1ccc(Br)cc1)NCc1cccs1`, the Potency was active: 22.4 µM. With `O=C(CSc1nnc(-c2ccccn2)o1)Nc1ccccc1C(F)(F)F` the activity change, negative = inhibition was inactive: 1.01% [at 0.0935 µM]. `O=c1c2c3c(sc2[nH]c(=S)n1Cc1ccco1)CCC3` was tested, and the Potency was inconclusive: 50.1 µM [inhibitor, partial curve, poor fit]. In the case of `CN(C)S(=O)(=O)N(CC(=O)NCCSCc1ccccc1)c1ccccc1`, the Potency was inconclusive: 63.1 µM [inhibitor, single point]. With `CO[C@@H]1COC(=O)[C@H]2CCCN2C(=O)[C@@H](C)COC(=O)C/C=C\[C@H]1C` the activity change, negative = inhibition was inactive: 7.94% [at 21 µM]. In the case of `CCC1(CC)NC(=O)N(CC(=O)N2N=C(c3ccc(Cl)cc3)CC2c2ccco2)C1=O` (stereo not given), the “activity change, negative = inhibition” value was inactive: 2.7%. With `Cc1ccc(NC(=O)COC(=O)CCC2CCCC2)c(Br)c1` the Potency was active: 56.2 µM. `Cc1ccc(-c2c(C#N)c(N)n3c(nc4ccccc43)c2C#N)cc1` was tested, and the Potency was inconclusive: 63.1 µM [inhibitor, partial curve, poor fit]. For `COc1ccc(-c2ccc(C#N)c(SCC(=O)OCc3ccccc3)n2)cc1OC`, the Potency was inconclusive: 31.6 µM [inhibitor, single point]. In the case of `COc1ccc(NC(=O)CSc2nc(NS(=O)(=O)c3ccc(C)cc3)cc(=O)[nH]2)cc1`, the Potency was active: 20 µM. With `COc1ccccc1-c1nc(NCCNC(C)=O)c2ccccc2n1` the Potency was inconclusive: 12.6 µM [inhibitor, partial curve]. For `O=C(CSc1nnc(-c2ccccc2)n1-c1ccccc1)NCc1ccco1`, the Potency was inconclusive: 89.1 µM [inhibitor, single point]. `Cc1cc(C(=O)Nc2ccc(Br)cc2)cs1` was tested, and the Potency was inconclusive: 39.8 µM [inhibitor, partial curve]. With `Cc1nc2ccccn2c1C(=O)N/N=C/c1ccc([N+](=O)[O-])o1` the Potency was inconclusive: 3.16 µM [inhibitor, full curve, poor fit]. For `Cc1ccc(NC(=O)C(c2ccccc2)N2CCN(CC(=O)N3CCOCC3)CC2)cc1Cl` (stereo not given), the Potency was active: 28.2 µM. For `CC(C)C(=O)Nc1ccc2nc(SCC(=O)N3CCCC3)sc2c1`, the “activity change, negative = inhibition” value was inactive: -0.521%. With `C=CCNc1nc(C(=O)OCC(=O)c2cccc(Br)c2)cs1` the Potency was inconclusive: 25.1 µM [inhibitor, full curve]. `CCn1c(-c2cccn(Cc3ccccc3)c2=O)n[nH]c1=S` was tested, and the Potency was inconclusive: 5.62 µM [inhibitor, partial curve]. `Cc1c(Cl)cnc(NC(=O)COC(=O)c2ccc(S(=O)(=O)NCc3ccco3)cc2)c1Cl` was tested, and the Potency was inconclusive: 79.4 µM [inhibitor, single point]. For `Cc1ccc(NC(=O)CSc2nc(O)cc(=O)n2C)cc1`, the Potency was inconclusive: 3.16 µM [inhibitor, full curve, poor fit]. In the case of `CCCCCC/C=C1\CC(C(=O)OCC)Oc2ccccc21` (stereo not given) (tested in a mixture with another compound), the Potency was inconclusive: 31.6 µM [inhibitor, single point].
